{"source": "the supplement of paper PMC8728848", "binders": {"B1": {"name": "CLEC5A (Homo sapiens), Q9NY25 (protein)", "chain": "MNWHMIISGLIVVVLKVVGMTLFLLYFPQIFNKSNDGFTTTRSYGTVSQIFGSSSPSPNGFITTRSYGTVCPKDWEFYQARCFFLSTSESSWNESRDFCKGKGSTLAIVNTPEKLKFLQDITDAEKYFIGLIYHREEKRWRWINNSVFNGNVTNQNQNFNCATIGLTKTFDAASCDISYRRICEKNAK"}}, "test_in_all_cases": "glycan array binding signal (z-score within array); higher = stronger binding", "details_in_all_cases": "glycan notation: IUPAC condensed, linker removed", "key": {"[1]": {"target": "Gal(b1-4)GlcNAc(b1-3)Gal(b1-4)GlcNAc(b1-2)[Gal(b1-4)GlcNAc(b1-3)Gal(b1-4)GlcNAc(b1-6)]Man(a1-6)[Gal(b1-4)GlcNAc(b1-3)Gal(b1-4)GlcNAc(b1-2)Man(a1-3)]Man(b1-4)GlcNAc(b1-4)[Fuc(a1-6)]GlcNAc", "method_in_brief": "(§1)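 The Consortium for Functional Glycomics database supplied 3228 glycan arrays, of which those lacking an available protein sequence were dropped. The binding signal, a within-array Z-score, was averaged across arrays of the same protein sequence and across linkers. Negative scores can be read as non-binding.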"}, "[2]": {"target": "Gal(b1-4)GlcNAc(b1-3)Gal(b1-4)GlcNAc(b1-3)Gal(b1-4)Glc", "method_in_brief": "as §1"}, "[3]": {"target": "Gal(b1-4)GlcNAc(b1-3)Gal(b1-4)GlcNAc(b1-3)Gal(b1-4)GlcNAc", "method_in_brief": "as §1"}, "[4]": {"target": "Gal(b1-4)GlcNAc(b1-3)Gal(b1-4)GlcNAc(b1-3)Gal(b1-4)GlcNAc(b1-2)Man(a1-3)[Gal(b1-4)GlcNAc(b1-3)Gal(b1-4)GlcNAc(b1-3)Gal(b1-4)GlcNAc(b1-2)Man(a1-6)]Man(b1-4)GlcNAc(b1-4)GlcNAc", "method_in_brief": "as §1"}, "[5]": {"target": "Gal(b1-4)GlcNAc(b1-3)Gal(b1-4)GlcNAc(b1-3)Gal(b1-4)GlcNAc(b1-2)Man(a1-3)[Gal(b1-4)GlcNAc(b1-3)Gal(b1-4)GlcNAc(b1-3)Gal(b1-4)GlcNAc(b1-2)Man(a1-6)]Man(b1-4)GlcNAc(b1-4)[Fuc(a1-6)]GlcNAc", "method_in_brief": "as §1"}, "[6]": {"target": "Gal(b1-4)GlcNAc(b1-3)Gal(b1-4)GlcNAc(b1-3)Gal(b1-4)GlcNAc(b1-2)[Gal(b1-4)GlcNAc(b1-3)Gal(b1-4)GlcNAc(b1-3)Gal(b1-4)GlcNAc(b1-6)]Man(a1-6)[Gal(b1-4)GlcNAc(b1-3)Gal(b1-4)GlcNAc(b1-3)Gal(b1-4)GlcNAc(b1-2)Man(a1-3)]Man(b1-4)GlcNAc(b1-4)[Fuc(a1-6)]GlcNAc", "method_in_brief": "as §1"}, "[7]": {"target": "Gal(b1-4)GlcNAc(b1-3)Gal(b1-4)GlcNAc(b1-3)Gal(b1-4)GlcNAc(b1-3)Gal(b1-4)GlcNAc(b1-2)Man(a1-3)[Gal(b1-4)GlcNAc(b1-3)Gal(b1-4)GlcNAc(b1-3)Gal(b1-4)GlcNAc(b1-3)Gal(b1-4)GlcNAc(b1-2)Man(a1-6)]Man(b1-4)GlcNAc(b1-4)GlcNAc", "method_in_brief": "as §1"}, "[8]": {"target": "Gal(b1-4)GlcNAc(b1-3)Gal(b1-4)GlcNAc(b1-3)Gal(b1-4)GlcNAc(b1-3)Gal(b1-4)GlcNAc(b1-2)Man(a1-3)[Gal(b1-4)GlcNAc(b1-3)Gal(b1-4)GlcNAc(b1-3)Gal(b1-4)GlcNAc(b1-3)Gal(b1-4)GlcNAc(b1-2)Man(a1-6)]Man(b1-4)GlcNAc(b1-4)[Fuc(a1-6)]GlcNAc", "method_in_brief": "as §1"}, "[9]": {"target": "Gal(b1-4)GlcNAc(b1-3)Gal(b1-4)GlcNAc(b1-3)Gal(b1-4)GlcNAc(b1-3)Gal(b1-4)GlcNAc(b1-2)[Gal(b1-4)GlcNAc(b1-3)Gal(b1-4)GlcNAc(b1-3)Gal(b1-4)GlcNAc(b1-3)Gal(b1-4)GlcNAc(b1-6)]Man(a1-6)[Gal(b1-4)GlcNAc(b1-3)Gal(b1-4)GlcNAc(b1-3)Gal(b1-4)GlcNAc(b1-3)Gal(b1-4)GlcNAc(b1-2)Man(a1-3)]Man(b1-4)GlcNAc(b1-4)[Fuc(a1-6)]GlcNAc", "method_in_brief": "as §1"}, "[10]": {"target": "Gal(b1-4)GlcNAc(b1-3)Gal(b1-4)GlcNAc(b1-3)Gal(b1-4)GlcNAc(b1-3)Gal(b1-4)GlcNAc(b1-3)Gal(b1-4)GlcNAc(b1-2)Man(a1-3)[Gal(b1-4)GlcNAc(b1-3)Gal(b1-4)GlcNAc(b1-3)Gal(b1-4)GlcNAc(b1-3)Gal(b1-4)GlcNAc(b1-3)Gal(b1-4)GlcNAc(b1-2)Man(a1-6)]Man(b1-4)GlcNAc(b1-4)GlcNAc", "method_in_brief": "as §1"}, "[11]": {"target": "Gal(b1-4)GlcNAc(b1-3)Gal(b1-4)GlcNAc(b1-3)Gal(b1-4)GlcNAc(b1-3)Gal(b1-4)GlcNAc(b1-3)Gal(b1-4)GlcNAc(b1-2)Man(a1-3)[Gal(b1-4)GlcNAc(b1-3)Gal(b1-4)GlcNAc(b1-3)Gal(b1-4)GlcNAc(b1-3)Gal(b1-4)GlcNAc(b1-3)Gal(b1-4)GlcNAc(b1-2)Man(a1-6)]Man(b1-4)GlcNAc(b1-4)[Fuc(a1-6)]GlcNAc", "method_in_brief": "as §1"}, "[12]": {"target": "Gal(b1-4)GlcNAc(b1-3)Gal(b1-4)GlcNAc(b1-3)Gal(b1-4)GlcNAc(b1-3)Gal(b1-4)GlcNAc(b1-3)Gal(b1-4)GlcNAc(b1-2)[Gal(b1-4)GlcNAc(b1-3)Gal(b1-4)GlcNAc(b1-3)Gal(b1-4)GlcNAc(b1-3)Gal(b1-4)GlcNAc(b1-3)Gal(b1-4)GlcNAc(b1-6)]Man(a1-6)[Gal(b1-4)GlcNAc(b1-3)Gal(b1-4)GlcNAc(b1-3)Gal(b1-4)GlcNAc(b1-3)Gal(b1-4)GlcNAc(b1-3)Gal(b1-4)GlcNAc(b1-2)Man(a1-3)]Man(b1-4)GlcNAc(b1-4)[Fuc(a1-6)]GlcNAc", "method_in_brief": "as §1"}, "[13]": {"target": "Gal(b1-4)GlcNAc(b1-3)Gal(b1-4)GlcNAc(b1-3)Gal(b1-4)GlcNAc(b1-3)Gal(b1-4)GlcNAc(b1-3)Gal(b1-4)GlcNAc(b1-3)Gal(b1-4)GlcNAc(b1-2)Man(a1-3)[Gal(b1-4)GlcNAc(b1-3)Gal(b1-4)GlcNAc(b1-3)Gal(b1-4)GlcNAc(b1-3)Gal(b1-4)GlcNAc(b1-3)Gal(b1-4)GlcNAc(b1-3)Gal(b1-4)GlcNAc(b1-2)Man(a1-6)]Man(b1-4)GlcNAc(b1-4)GlcNAc", "method_in_brief": "as §1"}, "[14]": {"target": "Gal(b1-4)GlcNAc(b1-3)Gal(b1-4)GlcNAc(b1-3)GalNAc", "method_in_brief": "as §1"}, "[15]": {"target": "Gal(b1-4)GlcNAc(b1-3)Gal(b1-4)GlcNAc(b1-3)[Gal(b1-4)GlcNAc(b1-3)Gal(b1-4)GlcNAc(b1-6)]GalNAc", "method_in_brief": "as §1"}, "[16]": {"target": "Gal(b1-4)GlcNAc(b1-3)Gal(b1-4)GlcNAc(b1-6)[Gal(b1-3)]GalNAc", "method_in_brief": "as §1"}, "[17]": {"target": "Gal(b1-4)GlcNAc(b1-3)Gal(b1-4)[Fuc(a1-3)]GlcNAc(b1-3)Gal(b1-4)[Fuc(a1-3)]GlcNAc", "method_in_brief": "as §1"}, "[18]": {"target": "Gal(b1-4)GlcNAc(b1-3)GalNAc", "method_in_brief": "as §1"}, "[19]": {"target": "Gal(b1-4)GlcNAc(b1-3)[Fuc(a1-3)GlcNAc(b1-6)]Gal(b1-4)Glc", "method_in_brief": "as §1"}, "[20]": {"target": "Gal(b1-4)GlcNAc(b1-3)[Fuc(a1-3)[Gal(b1-4)]GlcNAc(b1-6)]Gal(b1-4)Glc", "method_in_brief": "as §1"}, "[21]": {"target": "Gal(b1-4)GlcNAc(b1-3)[Gal(b1-4)GlcNAc(b1-6)]Gal(b1-4)Glc", "method_in_brief": "as §1"}, "[22]": {"target": "Gal(b1-4)GlcNAc(b1-3)[Gal(b1-4)GlcNAc(b1-6)]Gal(b1-4)GlcNAc", "method_in_brief": "as §1"}}, "note": "Some of the results follow.", "data": [{"binder": "B1", "values": [{"measurement": "glycan array binding signal (z-score)", "setting": "[1]", "value": 0.722}, {"measurement": "glycan array binding signal (z-score)", "setting": "[2]", "value": 0.258}, {"measurement": "glycan array binding signal (z-score)", "setting": "[3]", "value": 0.076}, {"measurement": "glycan array binding signal (z-score)", "setting": "[4]", "value": 0.157}, {"measurement": "glycan array binding signal (z-score)", "setting": "[5]", "value": 0.104}, {"measurement": "glycan array binding signal (z-score)", "setting": "[6]", "value": 0.558}, {"measurement": "glycan array binding signal (z-score)", "setting": "[7]", "value": 0.796}, {"measurement": "glycan array binding signal (z-score)", "setting": "[8]", "value": 1.88}, {"measurement": "glycan array binding signal (z-score)", "setting": "[9]", "value": 0.096}, {"measurement": "glycan array binding signal (z-score)", "setting": "[10]", "value": 1.44}, {"measurement": "glycan array binding signal (z-score)", "setting": "[11]", "value": 1.38}, {"measurement": "glycan array binding signal (z-score)", "setting": "[12]", "value": 0.25}, {"measurement": "glycan array binding signal (z-score)", "setting": "[13]", "value": -0.035}, {"measurement": "glycan array binding signal (z-score)", "setting": "[14]", "value": -0.121}, {"measurement": "glycan array binding signal (z-score)", "setting": "[15]", "value": 0.236}, {"measurement": "glycan array binding signal (z-score)", "setting": "[16]", "value": 0.021}, {"measurement": "glycan array binding signal (z-score)", "setting": "[17]", "value": 0.009}, {"measurement": "glycan array binding signal (z-score)", "setting": "[18]", "value": -0.368}, {"measurement": "glycan array binding signal (z-score)", "setting": "[19]", "value": -0.199}, {"measurement": "glycan array binding signal (z-score)", "setting": "[20]", "value": -0.031}, {"measurement": "glycan array binding signal (z-score)", "setting": "[21]", "value": -0.031}, {"measurement": "glycan array binding signal (z-score)", "setting": "[22]", "value": -0.198}]}]}
